Assay results published in PubChem BioAssay AID1159614 (National Center for Advancing Translational Sciences (NCATS), 2016).
Hit rate of the full screen: of about 45,000 compounds, about 65 (0.1%) were called active. Calls follow the shape of the dose curve; as a rule, active = well fitted activation curve with a large enough effect; inconclusive = small, poorly fitted or top-dose-only effect; inactive = no such curve, though single readings can be large or run the other way. This is one part of the list.

biological target: Galactocerebrosidase (Homo sapiens) (UniProt P54803); assay: A Novel Cell-Based Assay to Identify Small Molecules for B -Galactocerebrosidase; conditions: 145M-Twi-hGALC-G270D cells (Twitcher mouse brain line with human GALC G270D), HMU-beta-Gal fluorescence, 48 h; series mostly up to 57.5 µM; activation: at the top concentration; also: nearly all actives have a fitted effect of over 65% in size; as to activation: 0% is about no effect
Chain of UniProt P54803 (P54803 whole entry, looked up): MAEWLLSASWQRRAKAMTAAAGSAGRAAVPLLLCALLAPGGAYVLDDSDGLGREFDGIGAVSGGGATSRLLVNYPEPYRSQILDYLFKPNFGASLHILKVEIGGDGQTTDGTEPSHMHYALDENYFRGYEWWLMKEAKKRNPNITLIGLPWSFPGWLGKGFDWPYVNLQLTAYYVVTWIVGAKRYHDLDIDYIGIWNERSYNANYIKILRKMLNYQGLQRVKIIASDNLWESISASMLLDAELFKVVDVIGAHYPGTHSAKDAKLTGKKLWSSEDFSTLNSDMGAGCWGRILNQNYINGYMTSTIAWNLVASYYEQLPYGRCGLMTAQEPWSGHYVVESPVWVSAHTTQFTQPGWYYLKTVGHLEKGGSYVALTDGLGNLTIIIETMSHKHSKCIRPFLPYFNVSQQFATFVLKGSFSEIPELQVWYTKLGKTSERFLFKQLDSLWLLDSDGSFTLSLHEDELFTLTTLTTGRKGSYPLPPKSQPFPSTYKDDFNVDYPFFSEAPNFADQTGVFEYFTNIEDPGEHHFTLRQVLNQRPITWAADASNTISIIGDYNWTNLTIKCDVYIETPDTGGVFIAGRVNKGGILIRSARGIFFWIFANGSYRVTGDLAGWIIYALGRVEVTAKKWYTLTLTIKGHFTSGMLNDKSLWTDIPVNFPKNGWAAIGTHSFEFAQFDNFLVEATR
Outline: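 Mutant human GALC (G270D), stably expressed in a Twitcher mouse brain cell line lacking endogenous GALC, is measured in live-treated cells via 6-hexadecanoylamino-4-methylumbelliferyl-β-galactoside hydrolysis (0.1 mM final, pH 5.2) with fluorescent detection.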
Potency is read from the fitted curve at half-maximal effect.

Row | Structure (SMILES) | activation | Potency
1 | CCc1ccc(NC(=O)CSc2ccc(-c3sc(-c4ccccc4)nc3C)nn2)cc1 | inactive: -13.6% | –
2 | O=C(NCC(c1cccs1)S(=O)(=O)c1cccs1)c1cccc(F)c1 (centres undefined) | inactive: -3.59% | –
3 | Cc1ccc(CNC(=O)c2ccc(Cn3c(=O)c4ccccc4n(CC(=O)Nc4c(C)cc(C)cc4C)c3=O)cc2)cc1 | inactive: -14.8% | –
4 | O=c1oc2c3c(ccc2c2ccccc12)OCN(Cc1ccc(Cl)cc1)C3 | inactive: -12.8% | –
5 | COc1ccc(-c2nc3ccccc3n3c(-c4ccccc4)c4c(=O)n(C)c(=O)n(C)c4c23)cc1OC | inactive: -13.9% | –
6 | c1cnc(N2CCN(c3ncc4c(n3)CCNC4)CC2)nc1 | inactive: -15.1% | –
7 | COc1ccc(OC)c(-n2nnc(-c3nc(-c4cc(OC)c(OC)c(OC)c4)no3)c2C)c1 | inactive: -12.1% | –
8 | CN1C(=O)c2ccccc2Sc2ccc(NC(=O)N3CCN(c4ccccc4)CC3)cc21 | inactive: -4.18% | –
9 | CC(=O)N1c2ccccc2C(C)(c2ccc(C)cc2)CC1(C)C (centres undefined) | inactive: -14.3% | –
10 | O=C(NCc1ccccc1)c1cccn1-c1nnc(N2CCCC2)s1 | inactive: -16.2% | –
11 | COCCn1c(=O)[nH]c2cc(C(=O)N3CCN(c4ccccc4)CC3)ccc2c1=O | inactive: 3.57% | –
12 | COc1cc2c(cc1OC)C(COc1ccc3c(C)cc(=O)oc3c1)N(C(=O)c1ccccc1C)CC2 (centres undefined) | inactive: -3.64% | –
13 | COc1ccc(-n2nnnc2C2CCN(S(=O)(=O)c3ccc(C)cc3)CC2)cc1 | inactive: -6.05% | –
14 | CC1=C(c2ccc(C)cc2)S(=O)(=O)N(Cc2ccc(C(=O)Nc3ccc(C)c(F)c3)cc2)C1=O | inactive: -12% | –
15 | CCOc1ccc(C(=O)Nc2ccc3nc(SCC(=O)N4CCc5ccccc54)sc3c2)cc1 | inactive: 5.4% | –
16 | NC(=O)CSc1ncc2c(n1)-c1ccccc1N(Cc1ccc(F)cc1)S2(=O)=O | inactive: -10.3% | –
17 | Cc1ccc(-c2ccc(CCC(=O)O)n2-c2ccc(C(N)=O)cc2)cc1 | inactive: -6.48% | –
18 | CCOc1ccc(CNC(=O)c2nn(-c3ccc(OC)cc3)c(=O)c3c2c2ccccc2n3C)cc1 | inactive: -14.4% | –
19 | CC(=O)N1CCc2cc(S(=O)(=O)NC(Cc3ccccc3)C(=O)Nc3cc(C)ccc3C)ccc21 (centres undefined) | inactive: -19.3% | –
20 | COc1ccc2c(c1)c1c(c(=O)n(Cc3ccccc3)c(=O)n1Cc1cccc(Cl)c1)n2C | inactive: -10.1% | –
21 | COc1ccccc1NC(=O)c1cnc(SCC(=O)N2CCOCC2)n(C)c1=O | inactive: -16.2% | –
22 | CCn1cc(C(=O)NCCCOC)c(=O)c2cc(S(=O)(=O)N3CCc4ccccc4C3)ccc21 | inactive: -21.4% | –
23 | Cc1cc(C)c2oc(-c3ccc(Cl)c(NC(=O)c4cccs4)c3)nc2c1 | inactive: -14.8% | –
24 | COc1ccc(-c2n[nH]c3c2cnc2ccc(F)cc23)cc1 | inactive: -10.4% | –
25 | CCCSc1nc(-c2ccccc2)[nH]c1S(=O)(=O)c1ccc(C)cc1 | inactive: -12.5% | –

Row | Structure (SMILES) | activation | Potency
26 | Cc1ccc(-c2c(C(=O)NCCc3ccccc3)oc(=O)c3ccccc23)cc1 | inactive: -13.8% | –
27 | COc1ccc(-c2cc3ccc(O)c(CN4CCCC4)c3oc2=O)cc1 | inactive: -27.4% | –
28 | CCOC(=O)C1CCCN(CC(=O)Nc2cc(C)c3c(=O)oc4ccccc4c3n2)C1 (centres undefined) | inactive: -11.2% | –
29 | O=c1oc2ccc3ccccc3c2cc1-c1nnc(Nc2ccccc2F)s1 | inactive: -2.62% | –
30 | Cc1cc(C)cc(NC(=O)C2CCN(S(=O)(=O)c3cn(C)cn3)CC2)c1 | inactive: -16.4% | –
31 | CC1=Nc2cc(C(=O)N3CCC(C)CC3)ccc2Sc2ccc(Cl)cc21 | inactive: -18.1% | –
32 | Cn1cc(S(=O)(=O)N2CCCCCC2)cc1C(=O)Nc1ccc(Cl)c(C(F)(F)F)c1 | inactive: 0.631% | –
33 | COc1ccc(NS(=O)(=O)c2cc3c(cc2C)N(C(C)=O)CCO3)cc1 | inactive: -1.16% | –
34 | Cc1cc2c(cc1NS(=O)(=O)c1cccc(C#N)c1)n(C)c(=O)c(=O)n2C | inactive: -13.1% | –
35 | Cc1ccc(=O)n(-c2ccccc2)c1 | inactive: -11.4% | –
36 | CCc1cccc(C)c1NC(=O)Cn1nnc(-c2nc(-c3ccccc3F)no2)c1N | inactive: -21.5% | –
37 | COc1ccc(CCNC(=O)c2ccc(Cn3c(=O)c4ccccc4n(Cc4cccc(F)c4)c3=O)cc2)cc1OC | inactive: -8.33% | –
38 | CCc1ccc(NC(=O)C2CCCN2S(=O)(=O)c2ccc3c(c2)CCCC(=O)N3)cc1 (centres undefined) | inactive: -13% | –
39 | O=C1c2ccccc2CCc2ccccc21 | inactive: -12.6% | –
40 | CCC(CC)C(=O)Nc1cc(-c2ccccc2F)nn1-c1ccccc1 | inactive: -2.66% | –
41 | Cc1ccc(/C=C/c2onc(C)c2S(=O)(=O)N2CCC(C(=O)Nc3ccc(Br)c(C)c3)CC2)cc1 | inactive: 0.0684% | –
42 | CNS(=O)(=O)c1cn(CC(=O)Nc2ccc(OC)cc2OC)cc1S(=O)(=O)NC | inactive: -10.2% | –
43 | Cc1ccc(S(=O)(=O)c2cn(CC(=O)Nc3cccc(C)c3)c3cc4c(cc3c2=O)OCO4)cc1 | inactive: -0.722% | –
44 | NS(=O)(=O)c1ccc(NC(=O)CSc2ccc3ccccc3n2)cc1 | inactive: 9.4% | –
45 | Cc1ccc(CNS(=O)(=O)c2cc3c(cc2Cl)NC(=O)CO3)o1 | inactive: -10% | –
46 | CC1CCC(C(=O)NC(C(=O)OCC(=O)c2ccc(Br)cc2)C(C)C)CC1 (centres undefined) | inactive: -20.5% | –
47 | CN(C(=O)c1ccc2c(Cl)c3c(nc2c1)CCC3)c1ccccc1F | inactive: -12.2% | –
48 | Cc1ccc(CNC(=O)c2nnc(Cc3ccc(Cl)cc3)o2)cc1 | inactive: -3.45% | –
49 | CCN(CC)C(=O)Cn1c(=O)n(-c2ccccc2)c(=O)c2c3c(sc21)CCC3 | inactive: -2.3% | –
50 | COc1ccccc1C(=O)Nc1ccc(C(=O)OCc2cc(=O)n3nc(C)sc3n2)cc1 | inactive: 6.82% | –

Row | Structure (SMILES) | activation | Potency
51 | Cc1ccccc1/C=C(\C#N)c1nc(-c2ccc(Cl)cc2)cs1 | inactive: -14.7% | –
52 | Cc1csc2nc(-c3ccc(NS(=O)(=O)c4cc(F)ccc4F)cc3)cn12 | inactive: -32% | –
53 | COc1ccc2c(c1)Cc1sc(NC(=O)c3cccc(Br)c3)nc1-2 | inactive: -7.39% | –
54 | CC(=O)N1CCc2c(sc3c2c(=O)n(Cc2ccccc2)c(=O)n3Cc2cc(C)ccc2C)C1 | inactive: -5.07% | –
55 | CC1CN(C(=O)N2CCC(C(=O)NCCCc3ccccc3)CC2)c2ccccc2O1 (centres undefined) | inactive: -7.12% | –
56 | Cc1c(Cl)cccc1Nc1nc2ccc(C(=O)c3ccccc3)cc2n2cnnc12 | inactive: -13.3% | –
57 | Cc1ccc(NC(=O)Cn2c(-c3cncs3)nc3ccccc32)c(Br)c1 | inactive: -5.75% | –
58 | Cc1ccc(CNC(=O)CN2C(=O)C3(SCC(=O)N3c3ccc(F)cc3)c3ccccc32)cc1 (centres undefined) | inactive: -23% | –
59 | CCCCCn1c(CCNC(=O)c2cccc(C)c2)nc2ccccc21 | inactive: -18.1% | –
60 | CCC(=O)N1CCc2cc(CNS(=O)(=O)c3cccs3)ccc21 | inactive: 1.85% | –
61 | CCCCOc1ccc(CNC(=O)c2ccc3c(c2)N(C)C(=O)C2CCCCN32)cc1 (centres undefined) | inactive: -17.4% | –
62 | COc1ccc(CNC(=O)CCc2nc(-c3ccc(OC)cc3)no2)cc1 | inactive: -10.1% | –
63 | CCc1ccc(CNC(=O)C2CCCN(S(=O)(=O)c3ccc4c(ccn4C)c3)C2)cc1 (centres undefined) | inactive: -3.5% | –
64 | CCSc1nc2c([nH]c3ccccc32)c(=O)n1-c1ccc(F)cc1 | inactive: -2.76% | –
65 | Cc1cc(C)c2c(n1)sc1c(=O)n(-c3ccccc3C(F)(F)F)nnc12 | inactive: 2.56% | –
66 | Nc1c2ccccc2nc2ccccc12 | inactive: -14.2% | –
67 | Cc1cccc(C(C)C)c1NC(=O)C(NS(=O)(=O)c1cccc2nsnc12)c1ccccc1 (centres undefined) | inactive: -13.1% | –
68 | Cc1ccc(OCCSc2nc3ccc(NC(=O)c4ccc(F)cc4)cc3s2)cc1 | inactive: -11% | –
69 | CCOC(=O)C(CC)Sc1c(CC)cnc2c1c(=O)n(C)c(=O)n2C (centres undefined) | inactive: -5.09% | –
70 | COc1cccc(-c2cn3ncsc3n2)c1 | inactive: -11.9% | –
71 | Cc1ccc(Cc2cn3cc(-c4ccc(F)cc4)nc3s2)cc1 | inactive: -1.89% | –
72 | COc1ccc(-c2c(C)c3ccc(O)c(CN4CCCC4)c3oc2=O)cc1OC | – | active: 39.8 µM
73 | Cc1cccc(NC(=O)c2cc(S(=O)(=O)N3CCCCCC3)cn2C)c1C | inactive: 0.926% | –
74 | Cc1cc(C)n(-c2nc(C)c(C)c(=O)n2CC(=O)Nc2ccc(OC(F)(F)F)cc2)n1 | inactive: -18.3% | –
75 | Cc1ccc(NC(=O)Cn2cc(C(=O)C3CC3)c3ccccc32)cc1C | inactive: -17.2% | –

Row | Structure (SMILES) | activation | Potency
76 | Cc1ccccc1CSc1ccc(-c2cccs2)nn1 | inactive: 7.14% | –
77 | COc1ccc(OCc2nc(-c3ccc(-n4cccc4)cc3)no2)cc1 | inactive: -5.83% | –
78 | CN1CCC(=C2c3ccccc3Sc3ccccc32)CC1 | inactive: -10.7% | –
79 | Cc1nn(CC(=O)NC2CCC(C)CC2)c(=O)c2c1sc1ccccc12 (centres undefined) | inactive: -2.45% | –
80 | Cc1cc(C)c(Nc2ncnc3c2cnn3C)c(C)c1 | inactive: -14% | –
81 | Cc1ccc(NC(=O)CCc2c(C)nc3c(-c4ccc(F)cc4)c(C)nn3c2C)cc1F | inactive: -15.5% | –
82 | Cc1ccc2oc(-c3ccc(NC(=O)CCC(=O)O)cc3)nc2c1 | inactive: -18.6% | –
83 | CCn1cc2nc(SCC(=O)Nc3cc(OC)cc(OC)c3)n(Cc3ccc(Cl)cc3)c(=O)c2n1 | inactive: -4.19% | –
84 | COc1cc(NC(=O)CN2CCN(c3ccc(F)cc3)CC2)cc(OC)c1 | inactive: -18.6% | –
85 | CCOc1ccc(NC(=O)c2sc3nc4n(c(=O)c3c2C)CCC4)cc1 | inactive: -8.37% | –
86 | COC(=O)N1CCCc2cc(S(=O)(=O)NCc3ccccc3)ccc21 | inactive: 3.58% | –
87 | O=C(/C=C/c1ccccc1Cl)N1CCC(c2nc3ccccc3o2)CC1 | inactive: -8.3% | –
88 | COc1ccc(C2CC(=O)Nc3c2c(=O)[nH]c2nc4ccccc4n32)cc1 (centres undefined) | inactive: -9.13% | –
89 | Cc1cccc(C)c1NC(=O)c1ccc2c(c1)nnn2C1CCCC1 | inactive: -15% | –
90 | CCOc1cc(-c2ccc(OC(=O)c3ccccc3Cl)c(OC)c2)cc(=O)c2c(C)oc(C)c12 | inactive: -6.78% | –
91 | COc1ccc(-c2nn3c(=O)cc(CN4CCN(C(=O)/C=C/c5ccccc5)CC4)nc3s2)cc1 | inactive: -4.36% | –
92 | CC(=O)c1ccc(N2CCN(S(=O)(=O)c3ccc(-c4coc(C)n4)cc3)CC2)cc1 | inactive: -22.2% | –
93 | Cc1cc(C)cc(NC(=O)CSc2nc3c(c(=O)[nH]2)CN(Cc2ccc(F)cc2)CC3)c1 | inactive: -17% | –
94 | CCn1cc(C(=O)Nc2cccc(Cl)c2)c2cc(OC)c(OC)cc2c1=O | inactive: 0.0587% | –
95 | CCCCN(CC)CCNC(=O)C1CCN(S(=O)(=O)c2cccc3nsnc23)CC1 | inactive: -12.2% | –
96 | CCNC(=O)c1ccc(NC(=O)N2CCCCc3ccccc32)cc1 | inactive: -6.42% | –
97 | COc1ccccc1N1CCN(C(=O)Cn2c(=O)n3nc(-c4cccc(F)c4)nc3c3ccccc32)CC1 | inactive: -6.33% | –
98 | Cc1ccccc1COC(=O)c1nn(-c2ccccc2)nc1N | inactive: -10.2% | –
99 | COc1ccc(-c2cnc(C)o2)cc1S(=O)(=O)Nc1ccc(NC(C)=O)cc1 | inactive: -16.3% | –
